Reference: the supplement of paper PMC8728848
The list shows a part of the results.

Key:
Assay in all cases: glycan array binding signal (z-score within array); higher = stronger binding
Settings in all cases: glycan notation: IUPAC condensed, linker removed
[1] = target: Fuc(a1-2)Gal
Method in brief: (§1)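 Glycan array data were curated from 3228 arrays in the Consortium for Functional Glycomics database and kept only where the protein sequence was available. Glycan names were converted to IUPAC-condensed notation, and columns mapping to the same glycan were averaged. The binding signal is a within-array Z-score, averaged across arrays of the same protein sequence at different concentrations or buffers and across linkers. Negative Z-scores can be read as non-binding.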

[2] = target: Fuc(a1-2)Gal(b1-3)GalNAc
Method in brief: as §1

[3] = target: Fuc(a1-2)Gal(b1-3)GalNAc(b1-3)Gal
Method in brief: as §1

[4] = target: Fuc(a1-2)Gal(b1-3)GalNAc(b1-3)Gal(a1-4)Gal(b1-4)Glc
Method in brief: as §1

[5] = target: Fuc(a1-2)Gal(b1-3)GalNAc(b1-4)[Neu5Ac(a2-3)]Gal(b1-4)Glc
Method in brief: as §1

[6] = target: Fuc(a1-2)Gal(b1-3)GlcNAc
Method in brief: as §1

[7] = target: Fuc(a1-2)Gal(b1-3)GlcNAc(b1-3)Gal(b1-4)Glc
Method in brief: as §1

[8] = target: Fuc(a1-2)Gal(b1-3)[Fuc(a1-4)]GlcNAc
Method in brief: as §1

[9] = target: Fuc(a1-2)Gal(b1-4)Glc
Method in brief: as §1

[10] = target: Fuc(a1-2)Gal(b1-4)GlcNAc
Method in brief: as §1

[11] = target: Fuc(a1-2)Gal(b1-4)GlcNAc(b1-3)Gal(b1-4)GlcNAc
Method in brief: as §1

[12] = target: Fuc(a1-2)Gal(b1-4)GlcNAc(b1-3)Gal(b1-4)GlcNAc(b1-3)Gal(b1-4)GlcNAc
Method in brief: as §1

[13] = target: Fuc(a1-2)Gal(b1-4)[Fuc(a1-3)]GlcNAc
Method in brief: as §1

[14] = target: Fuc(a1-2)Gal(b1-4)[Fuc(a1-3)]GlcNAc(b1-3)Gal(b1-4)[Fuc(a1-3)]GlcNAc
Method in brief: as §1

[15] = target: Fuc(a1-2)Gal(b1-4)[Fuc(a1-3)]GlcNAc(b1-3)Gal(b1-4)[Fuc(a1-3)]GlcNAc(b1-3)Gal(b1-4)[Fuc(a1-3)]GlcNAc
Method in brief: as §1

[16] = target: Fuc(a1-2)GlcNAc
Method in brief: as §1

[17] = target: Fuc(a1-2)[Gal(a1-3)]Gal
Method in brief: as §1

[18] = target: Fuc(a1-2)[Gal(a1-3)]Gal(b1-3)GlcNAc
Method in brief: as §1

[19] = target: Fuc(a1-2)[Gal(a1-3)]Gal(b1-4)Glc
Method in brief: as §1

[20] = target: Fuc(a1-2)[Gal(a1-3)]Gal(b1-4)GlcNAc
Method in brief: as §1

[21] = target: Fuc(a1-2)[Gal(a1-3)]Gal(b1-4)[Fuc(a1-3)]GlcNAc
Method in brief: as §1

[22] = target: Fuc(a1-2)[Gal(a1-4)]Gal(b1-4)GlcNAc
Method in brief: as §1

[23] = target: Fuc(a1-2)[GalNAc(a1-3)]Gal
Method in brief: as §1

[24] = target: Fuc(a1-2)[GalNAc(a1-3)]Gal(b1-3)GlcNAc
Method in brief: as §1

[25] = target: Fuc(a1-2)[GalNAc(a1-3)]Gal(b1-4)Glc
Method in brief: as §1

[26] = target: Fuc(a1-2)[GalNAc(a1-3)]Gal(b1-4)GlcNAc
Method in brief: as §1

[27] = target: Fuc(a1-2)[GalNAc(a1-3)]Gal(b1-4)[Fuc(a1-3)]GlcNAc
Method in brief: as §1

[28] = target: Fuc(a1-2)[GalNAc(a1-4)]Gal(b1-4)GlcNAc
Method in brief: as §1

[29] = target: Fuc(a1-2)[GalNAc(b1-3)]Gal
Method in brief: as §1

[30] = target: Fuc(a1-3)GlcNAc
Method in brief: as §1

[31] = target: Fuc(a1-3)[Gal(b1-4)]GlcNAc
Method in brief: as §1

[32] = target: Fuc(a1-3)[Gal(b1-4)]GlcNAc(b1-4)Gal(b1-4)[Fuc(a1-3)]GlcNAc
Method in brief: as §1

[33] = target: Fuc(a1-3)[Gal(b1-4)]GlcNAc(b1-4)Gal(b1-4)[Fuc(a1-3)]GlcNAc(b1-4)Gal(b1-4)[Fuc(a1-3)]GlcNAc
Method in brief: as §1

[34] = target: Fuc(a1-3)[Gal3S(b1-4)]GlcNAc
Method in brief: as §1

[35] = target: Fuc(a1-3)[GalNAc(b1-4)]GlcNAc
Method in brief: as §1

[36] = target: Fuc(a1-4)GlcNAc
Method in brief: as §1

[37] = target: Fuc(b1-3)GlcNAc
Method in brief: as §1

[38] = target: Gal(a1-2)Gal
Method in brief: as §1

[39] = target: Gal(a1-3)Gal
Method in brief: as §1

[40] = target: Gal(a1-3)Gal(b1-3)GlcNAc
Method in brief: as §1

[41] = target: Gal(a1-3)Gal(b1-4)Glc
Method in brief: as §1

[42] = target: Gal(a1-3)Gal(b1-4)GlcNAc
Method in brief: as §1

[43] = target: Gal(a1-3)Gal(b1-4)[Fuc(a1-3)]GlcNAc
Method in brief: as §1

[44] = target: Gal(a1-3)GalNAc
Method in brief: as §1

[45] = target: Gal(a1-3)[Gal(a1-4)]Gal(b1-4)GlcNAc
Method in brief: as §1

[46] = target: Gal(a1-4)Gal(b1-4)Glc
Method in brief: as §1

[47] = target: Gal(a1-4)Gal(b1-4)GlcNAc
Method in brief: as §1

[48] = target: Gal(a1-4)GlcNAc
Method in brief: as §1

[49] = target: Gal(a1-6)Glc
Method in brief: as §1

[50] = target: Gal(b1-2)Gal
Method in brief: as §1

[51] = target: Gal(b1-3)Gal
Method in brief: as §1

[52] = target: Gal(b1-3)GalNAc
Method in brief: as §1

[53] = target: Gal(b1-3)GalNAc(b1-3)Gal(a1-4)Gal(b1-4)Glc
Method in brief: as §1

[54] = target: Gal(b1-3)GalNAc(b1-4)Gal(b1-4)Glc
Method in brief: as §1

[55] = target: Gal(b1-3)GalNAc(b1-4)[Neu5Ac(a2-3)]Gal(b1-4)Glc
Method in brief: as §1

[56] = target: Gal(b1-3)GlcNAc
Method in brief: as §1

[57] = target: Gal(b1-3)GlcNAc(b1-3)Gal(b1-4)Glc
Method in brief: as §1

[58] = target: Gal(b1-3)GlcNAc(b1-3)Gal(b1-4)GlcNAc
Method in brief: as §1

[59] = target: Gal(b1-3)[Fuc(a1-4)]GlcNAc
Method in brief: as §1

[60] = target: Gal(b1-3)[Fuc(a1-4)]GlcNAc(b1-3)Gal(b1-4)GlcNAc
Method in brief: as §1

B1: RSVL (Crotalus atrox), P21963 (protein)
chain: NNCPLDWLPMNGLCYKIFNQLKTWEDAEMFCRKYKPGCHLASFHRYGESLEIAEYISDYHKGQENVWIGLRDKKKDFSWEWTDRSCTDYLTWDKNQPDHYQNKEFCVELVSLTGYRLWNDQVCESKDAFLCQCKF
glycan array binding signal (z-score) [1]: -0.366
glycan array binding signal (z-score) [2]: -0.363
glycan array binding signal (z-score) [3]: -0.328
glycan array binding signal (z-score) [4]: -0.367
glycan array binding signal (z-score) [5]: -0.362
glycan array binding signal (z-score) [6]: -0.349
glycan array binding signal (z-score) [7]: -0.367
glycan array binding signal (z-score) [8]: -0.364
glycan array binding signal (z-score) [9]: -0.366
glycan array binding signal (z-score) [10]: -0.365
glycan array binding signal (z-score) [11]: -0.363
glycan array binding signal (z-score) [12]: -0.36
glycan array binding signal (z-score) [13]: -0.366
glycan array binding signal (z-score) [14]: -0.367
glycan array binding signal (z-score) [15]: -0.366
glycan array binding signal (z-score) [16]: -0.364
glycan array binding signal (z-score) [17]: -0.367
glycan array binding signal (z-score) [18]: -0.367
glycan array binding signal (z-score) [19]: -0.35
glycan array binding signal (z-score) [20]: -0.367
glycan array binding signal (z-score) [21]: -0.361
glycan array binding signal (z-score) [22]: -0.352
glycan array binding signal (z-score) [23]: 1.79
glycan array binding signal (z-score) [24]: 1.34
glycan array binding signal (z-score) [25]: 1.84
glycan array binding signal (z-score) [26]: 2.38
glycan array binding signal (z-score) [27]: -0.047
glycan array binding signal (z-score) [28]: 1.5
glycan array binding signal (z-score) [29]: -0.106
glycan array binding signal (z-score) [30]: -0.364
glycan array binding signal (z-score) [31]: -0.358
glycan array binding signal (z-score) [32]: -0.367
glycan array binding signal (z-score) [33]: -0.349
glycan array binding signal (z-score) [34]: -0.364
glycan array binding signal (z-score) [35]: -0.367
glycan array binding signal (z-score) [36]: 0.078
glycan array binding signal (z-score) [37]: -0.366
glycan array binding signal (z-score) [38]: -0.349
glycan array binding signal (z-score) [39]: 0.555
glycan array binding signal (z-score) [40]: 0.678
glycan array binding signal (z-score) [41]: 1.03
glycan array binding signal (z-score) [42]: 1.68
glycan array binding signal (z-score) [43]: 2.4
glycan array binding signal (z-score) [44]: 2.94
glycan array binding signal (z-score) [45]: 5.83
glycan array binding signal (z-score) [46]: -0.362
glycan array binding signal (z-score) [47]: -0.337
glycan array binding signal (z-score) [48]: -0.012
glycan array binding signal (z-score) [49]: -0.368
glycan array binding signal (z-score) [50]: -0.356
glycan array binding signal (z-score) [51]: 0.092
glycan array binding signal (z-score) [52]: 0.264
glycan array binding signal (z-score) [53]: 0.117
glycan array binding signal (z-score) [54]: -0.359
glycan array binding signal (z-score) [55]: -0.344
glycan array binding signal (z-score) [56]: -0.274
glycan array binding signal (z-score) [57]: -0.299
glycan array binding signal (z-score) [58]: -0.3
glycan array binding signal (z-score) [59]: -0.365
glycan array binding signal (z-score) [60]: -0.168
